Measured values taken from patent US20240400705A1 (SYNERGY IMT, published 2024).

Molecular target: T1, TROP2 on DLD1 colon cancer cells (UniProt P09758 27-323, limits assumed)
T1 construct: whole, on cells
T1 sequence (looked up): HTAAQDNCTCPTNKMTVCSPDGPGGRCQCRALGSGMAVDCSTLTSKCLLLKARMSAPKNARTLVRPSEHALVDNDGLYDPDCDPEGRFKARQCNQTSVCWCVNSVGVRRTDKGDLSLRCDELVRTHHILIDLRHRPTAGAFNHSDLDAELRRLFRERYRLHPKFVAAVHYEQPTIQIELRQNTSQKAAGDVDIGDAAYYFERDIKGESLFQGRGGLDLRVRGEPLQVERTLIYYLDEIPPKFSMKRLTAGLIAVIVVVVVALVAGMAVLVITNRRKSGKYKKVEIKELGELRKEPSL
Experiment: flow cytofluorimetry on AGS cells (TROP2 on AGS); bar = MFI, marker = percent positive; concentration not given for this panel

B1: bispecific recombinant antigen binding molecule 13-14 (NKG2DL x CD3) (Fc fusion)
chain 1: QIPLTESYCGPCPKNWICYKNNCYQFFDESKNWYESQASCMSQNASLLKVYSKEDQDLLKLVKSYHWMGLVHIPTNGSWQWEDGSILSPNLLTIIEMQKGDCALYASSFKGYIENCSTPNTYICMQRTVPAGGGGGTHTCPPCPAPEAAGGPSVFLFPPKPKDTLMISRTPEVTCVVVDVSHEDPEVKFNWYVDGVEVHNAKTKPREEQYNSTYRVVSVLTVLHQDWLNGKEYKCKVSNKALPAPIEKTISKAKGQPREPQVCTLPPSRDELTKNQVSLSCAVKGFYPSDIAVEWESNGQPENNYKTTPPVLDSDGSFFLVSKLTVDKSRWQQGNVFSCSVMHEALHNHYTQKSLSLSPGK
chain 2: EVQLVESGGGLVQPGGSLKLSCAASGFTFNTYAMNWVRQAPGKGLEWVGRIRSKYNNYATYYADSVKGRFTISRDDSKNTLYLQMNSLKTEDTAVYYCVRHGNFGNSYVSWFAYWGQGTLVTVSSGGGGSGGGGSGGGGSQAVVTQEPSLTVSPGGTVTLTCGSSTGAVTTSNYANWVQQKPGQAFRGLIGGTNKRAPGTPARFSGSLLGGKAALTLSGAQPEDEAEYYCALWYSNLWVFGGGTKLTVLASGGGGGPLTESYCGPCPKNWICYKNNCYQFFDESKNWYESQASCMSQNASLLKVYSKEDQDLLKLVKSYHWMGLVHIPTNGSWQWEDGSILSPNLLTIIEMQKGDCALYASSFKGYIENCSTPNTYICMQRTVPAGGG[gap - human IgG1 Fc with changes and a few adjoining residues]
notes: 13: NKG2D-linker-tIg hinge-G1Fc; 14: h3scFv-NKG2D-linker-tIg hinge-G1Fc
binding result: no binding
